Test results: the supplement of paper PMC3334620
In all, about 33,000 sequences were measured (“E-score (-0.5 to 0.5)”: median about -0.012, highest 2% from about 0.27 on). Some of the results follow.

Target: T1, Vhr1 (UniProt P40522)
T1 sequence: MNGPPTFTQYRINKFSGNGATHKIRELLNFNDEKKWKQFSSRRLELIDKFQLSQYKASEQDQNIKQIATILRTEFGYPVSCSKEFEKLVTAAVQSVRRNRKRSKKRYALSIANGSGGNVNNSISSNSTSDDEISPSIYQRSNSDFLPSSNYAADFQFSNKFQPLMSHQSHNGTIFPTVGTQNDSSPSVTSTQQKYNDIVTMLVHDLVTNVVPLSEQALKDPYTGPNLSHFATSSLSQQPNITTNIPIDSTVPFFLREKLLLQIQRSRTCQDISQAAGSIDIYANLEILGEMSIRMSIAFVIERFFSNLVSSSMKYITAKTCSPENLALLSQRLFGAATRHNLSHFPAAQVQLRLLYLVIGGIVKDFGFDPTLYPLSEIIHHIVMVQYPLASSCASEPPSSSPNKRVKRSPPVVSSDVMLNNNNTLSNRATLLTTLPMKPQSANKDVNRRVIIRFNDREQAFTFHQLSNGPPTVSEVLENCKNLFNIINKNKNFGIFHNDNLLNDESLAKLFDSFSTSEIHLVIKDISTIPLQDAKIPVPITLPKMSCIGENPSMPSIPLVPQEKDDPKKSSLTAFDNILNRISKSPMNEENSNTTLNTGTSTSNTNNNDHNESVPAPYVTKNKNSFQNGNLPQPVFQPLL
Test: PBM E-score (8-mer binding enrichment) (E-score (-0.5 to 0.5)); higher = stronger / more preferred TF binding; most listed sequences are background and not binding sites
Conditions: protein concentration: 200 nM; construct: GST-full length
Experimental: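 Universal 'all 10-mer' protein binding microarrays (Agilent AMADID 015681) probed with GST-tagged S. cerevisiae TFs (full-length or DBD) made by in vitro transcription/translation (PURExpress), about 100-200 nM. Bound TF was detected with fluorescent anti-GST. Each ungapped 8-mer (which stands for itself and its reverse complement) is scored by the PBM enrichment score (E-score), a modified Wilcoxon-Mann-Whitney statistic from -0.5 to +0.5, computed with the Universal PBM Analysis Suite. Scale: above 0.35 generally sequence-specific binding.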

Row | Sequence | PBM E-score
1 | ATCTGACG | -0.0358
2 | ACGACAGC | 0.00648
3 | AATAGATT | -0.00061
4 | CGATTAAG | -0.0745
5 | CACCCTAG | 0.0911
6 | ATAATGTG | 0.094
7 | CATAACTC | 0.0245
8 | CAGGCAAC | 0.078
9 | AGCCTACC | -0.159
10 | CGTGTCGA | -0.00815
11 | GCAATAAA | 0.0117
12 | AATATACG | -0.0103
13 | CGGCTAGA | -0.198
14 | ACCGGACA | -0.0713
15 | CAAAGCCC | -0.099
16 | AGGAGTTG | -0.00747
17 | ACGTGGAC | -0.0382
18 | AAGCATAT | 0.0754
19 | AACCTTCA | -0.0529
20 | ATAAATTC | -0.136
21 | AACAAGGT | 0.00321
22 | AAGTCTAC | -0.0786

Row | Sequence | PBM E-score
23 | CCGCACTC | 0.0922
24 | CGCATATC | 0.262
25 | CAGGCTAC | 0.0449
26 | CTGGTCAC | 0.05
27 | GCCCCAGA | 0.103
28 | CCACACCC | 0.197
29 | CATGATCG | 0.127
30 | TACTCCCA | 0.131
31 | ACCACCCT | -0.0842
32 | CTATGGGC | -0.141
33 | ATCGGCAC | 0.0188
34 | CCCCGCGC | -0.00559
35 | GCCCGGGA | 0.11
36 | AACACTTC | 0.014
37 | CGTACCGC | -0.0362
38 | ACACGGGA | 0.136
39 | AACCGACA | 0.123
40 | CAATTTGG | -0.158
41 | GCTTGTCA | -0.11
42 | CTCCCACA | -0.0608
43 | CACGTATG | 0.073
44 | CGGAATCA | 0.412

Row | Sequence | PBM E-score
45 | GGCCTTCA | -0.0959
46 | AAATGGAG | 0.0249
47 | ATTCACGG | 0.0271
48 | AGCTAGTG | 0.119
49 | GTTAAGAA | -0.22
50 | CCTCGTGA | 0.00771
51 | AATGGACA | -0.00426
52 | GCGGAGAA | 0.00312
53 | TGTTATAA | 0.163
54 | AACCCAAT | 0.0167
55 | CAACCCAC | 0.248
56 | CCCTGTAC | -0.0291
57 | CAACTCCC | 0.0862
58 | CGCTTCGC | -0.137
59 | AAGTTCAC | 0.0411
60 | AGTTCACG | -0.244
61 | CCTGGCGC | 0.0921
62 | CCGACAAA | -0.0927
63 | CCGAGAAG | -0.173
64 | CGCAAGTA | -0.00503
65 | AACCGAAC | -0.0679
66 | CCGCTCGA | -0.0637

Row | Sequence | PBM E-score
67 | CCTGTCTA | 0.0253
68 | CGGTGAGC | 0.0551
69 | ATAGTGTC | 0.13
70 | TCTGAAAA | -0.27
71 | CATATAAA | -0.133
72 | GAGCCACC | 0.228
73 | ATGCAAAA | -0.135
74 | CATCACCG | -0.0076
75 | CGGATCTC | -0.0666
76 | CCTCGAAC | -0.0493
77 | CTCTCGGA | 0.135
78 | GCACTTCA | -0.188
79 | ATATTCTC | 0.126
80 | CATATGAC | 0.267
81 | GAGTTACA | 0.171
82 | CATTATGC | 0.138
83 | CCCATATA | 0.165
84 | GGGACACA | 0.297
85 | AGTGAAAC | 0.068
86 | CCCATCCG | 0.0692
